PubChem BioAssay AID1508642 (National Center for Advancing Translational Sciences (NCATS), 2021)
Screen size: about 43,000 compounds; about 200 (0.47%) were called active. Inconclusive means that the source gave no clear call. Such entries were picked first, then a sample of the others. Calls come from the whole dose curve; as a rule, active = well fitted cell-killing curve with a large enough effect; inconclusive = small, poorly fitted or top-dose-only effect, or effect the other way; inactive = flat fitted curve, though single readings scatter. Where the call is inconclusive, the potency comes from a doubtful curve fit.

test: Cell viability qHTS assay in S16 Pmp22-F2sN cells; details: S16 Pmp22-F2sN Schwann cells (luciferase reporters placed in the Pmp22 gene) viability, CellTiter-Glo, 24 h; series mostly up to 57.5 µM; note: nearly all actives have a fitted effect of over 65% in size
Outline: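 Seed 500-1,000 S16 Pmp22-F2sN cells per well in phenol-red-free DMEM with 10% heat-inactivated FBS; pin-add 23 nL compound; incubate 24 h at 37C; add CellTiter-Glo, wait 15 min protected from light; read luminescence.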
Potency is the fitted concentration of half-maximal effect; tags give direction and shape of the fitted curve.

SMILES	Potency
Cn1nc(-c2ccccc2F)c2cc(C(=O)NCc3ccc(Cl)cc3)sc21	inconclusive: 39.8 µM [cytotoxic, partial curve, poor fit]
CCOC(=O)c1c(Nc2cccc(C(=O)OC)c2)nnc(-c2ccccc2)c1-c1ccccc1	inconclusive: 39.8 µM [cytotoxic, single point]
COc1ccc(OC)c(C2c3c(-c4ccc(Br)cc4)n[nH]c3C(=O)N2c2ccc(Cl)cc2)c1 (stereo not given)	inconclusive: 39.8 µM [cytotoxic, single point]
COc1cc(-c2nc3ccccn3c2Nc2ccccc2C)ccc1O	inconclusive: 11.2 µM [cytotoxic, partial curve]
Cc1nc(N2CCCC2)c2c(C(=O)Nc3ccc(Br)cc3F)c(C)oc2n1	inactive
CC(C)NC(=O)C1CCC(Cn2c(=O)c3sccc3n(CC(=O)Nc3ccccc3)c2=O)CC1 (stereo not given)	active: 25.1 µM
Cc1ccccc1C(=O)Nc1nc(-c2ccc(Br)cc2)ns1	inconclusive: 39.8 µM [cytotoxic, single point]
CCOC(=O)c1c(C)n(-c2ccccc2)c2ccc(OC(=O)c3cccc(Cl)c3)cc12	inconclusive: 0.708 µM [rising, partial curve, poor fit]
Cc1ccc(NC(=O)Cn2cc3c(n2)CCCC3)c(C)c1	inactive
Cc1ccc(Cl)cc1NC(=O)CCn1c(=O)c2cccn2c2cccnc21	inconclusive: 4.47 µM [rising, full curve, poor fit]
Oc1c(C(c2ccccc2Cl)N2CCN(Cc3ccccc3)CC2)sc2nc(-c3ccco3)nn12 (stereo not given)	inconclusive: 0.891 µM [cytotoxic, partial curve, poor fit]
O=C(CSc1nnc2scc(-c3ccccc3)n12)Nc1ccc(Cl)cc1	inconclusive: 8.91 µM [cytotoxic, full curve, poor fit]
O=C(Nc1cccc(C(F)(F)F)c1)Nc1cccs1	inconclusive: 20 µM [cytotoxic, partial curve]
CCc1cccc(C)c1NC(=O)CCCN1C(=O)C(c2ccccc2)Oc2cccnc21 (stereo not given)	inconclusive: 22.4 µM [rising, partial curve, poor fit]
COc1cccc(NC(=O)Nc2ccc3nc(N4CCN(C)CC4)cc(C)c3c2)c1	inconclusive: 35.5 µM [cytotoxic, single point]
Cc1cccc(NC(=O)CSc2nc(=O)n(Cc3ccncc3)c3c2CCC3)c1C	inactive
CCOC(=O)c1cccc(NS(=O)(=O)c2cc(-c3cnc(C)o3)ccc2OC)c1	inconclusive: 10 µM [cytotoxic, partial curve, poor fit]
C=CCc1c(C)nc2nc(SCC(=O)Nc3cccc(Cl)c3)nn2c1C	inactive
O=C(Nc1ccccc1C(=O)OCc1cc(=O)n2c3c(sc2n1)CCCC3)c1ccccc1	inconclusive: 0.0178 µM [cytotoxic, single point]
O=C(CCS(=O)(=O)c1ccccc1)N(Cc1cccnc1)c1nc2c(Cl)cccc2s1	inconclusive: 39.8 µM [cytotoxic, single point]

SMILES	Potency
Cc1c(Cl)cccc1NC(=O)c1ccc2c(c1)nnn2C1CCCC1	inconclusive: 2.24 µM [cytotoxic, full curve, poor fit]
CC(=O)c1cccc(NC(=O)CSc2nnc3ccc(-c4ccc(Cl)cc4)nn23)c1	inconclusive: 1.58 µM [rising, partial curve]
Cc1ccc(Cl)cc1NC(=O)CCCn1c(=O)c2cccn2c2ccccc21	inconclusive: 39.8 µM [cytotoxic, single point]
CC(=O)N1CCc2c(sc3nc(SCC(N)=O)n(-c4ccc(F)c(Cl)c4)c(=O)c23)C1	inconclusive: 22.4 µM [rising, partial curve, poor fit]
Cc1cccc(N2CCN(C(=O)c3ccc4nc(N5CCC(C)CC5)sc4c3)CC2)c1C	inconclusive: 28.2 µM [cytotoxic, single point]
CCc1ccc(CNc2ncc(-c3cccc(OC)c3)n2C)cc1	inconclusive: 28.2 µM [cytotoxic, single point]
CCOCCCn1c(=N)c(C(=O)NC(C)c2ccccc2)cc2c(=O)n3cc(C)ccc3nc21 (stereo not given)	inactive
Cc1cccc(C(=O)NCC(c2cccs2)S(=O)(=O)c2cccs2)c1 (stereo not given)	inactive
Cc1ccc(NC(=O)N2CC3CCCN3c3ccccc32)cc1C (stereo not given)	inconclusive: 11.2 µM [cytotoxic, partial curve]
Cc1ccc(NC(=O)CSc2nc3nc(C)c(Cc4ccccc4)c(C)n3n2)cc1	inactive
Cc1ccc(C)c(Cn2c(=O)n(CC3CCC(C(=O)N4CCOCC4)CC3)c(=O)c3sccc32)c1 (stereo not given)	inconclusive: 35.5 µM [cytotoxic, single point]
O=C(CCCCn1c(=O)[nH]c2ccsc2c1=O)N1CCN(c2cccc(C(F)(F)F)c2)CC1	inconclusive: 3.55 µM [rising, partial curve, poor fit]
O=C(CCc1ccccc1)N(Cc1cccnc1)c1nc2ccc(F)cc2s1	inconclusive: 39.8 µM [cytotoxic, single point]
O=C(Cn1cc(SCc2ccc(F)cc2)c2ccccc21)N1CCCCCC1	inconclusive: 7.94 µM [rising, full curve, poor fit]
COc1ccc(OC)c(CCNC(=O)c2cnn(-c3ccccc3)c2-n2cccc2)c1	inconclusive: 39.8 µM [cytotoxic, single point]
CCOc1ccc(C2CC(=O)c3c([nH]c(C(=O)OCCOc4ccccc4)c3C)C2)cc1 (stereo not given)	active: 28.2 µM
COc1ccc(CCNC(=O)CCc2c(C)nc3cc(-c4ccc(Cl)cc4)nn3c2C)c(OC)c1	inactive
COc1ccc(NS(=O)(=O)c2ccc3c(c2)CC(C)N3C(=O)C2CCC2)cc1OC (stereo not given)	inactive
Cc1c(C(=O)N(C)Cc2ccccc2)sc2nc(-c3ccc(F)cc3)cn12	inconclusive: 39.8 µM [cytotoxic, single point]
Cc1noc2ncnc(NCCc3ccccc3)c12	inconclusive: 10 µM [cytotoxic, partial curve, poor fit]
